We go through 62 compounds from the supplement of paper PMC12340641.

In all, about 1,000 compounds were measured (“relative growth in counter assay (no AraC = 100%, AraC + DMSO = 0%)”: median about -1.1, highest 2% from about 20 on). Some of the results follow.

The test system of the assay is HEK293FT dCK*-only. The assay can be described thus: relative growth in counter assay (no AraC = 100%, AraC + DMSO = 0%); higher = more growth rescue independent of IKZF1. The note with it: compound concentration: 5 uM; AraC concentration: 0.3 uM; overnight pretreatment + 4 days AraC. Here is the method: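 Growth recovery screen of the molecular-glue-like (Specs) library. HEK293FT cells expressing a dCK*-IKZF1 fusion (primary) or dCK* alone (counter) were pretreated overnight with compound at 5 uM, then given 0.3 uM AraC for 4 days. Hoechst nuclei were counted by imaging. Primary: normalised to pomalidomide (100%) and DMSO (0%), mean of 2 replicates. Counter: normalised to no-AraC (100%) and AraC+DMSO (0%), single replicate.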
`O=C(COc1ccccc1)Nc1ccc(S(=O)(=O)Nc2ccccn2)cc1`: the “relative growth in counter assay” value worked out at 2.12%.
The same measure for `COc1cc(NS(=O)(=O)c2ccc(N)cc2)nc(OC)n1`: -1.08%.
Take `CCN(CC)c1ccc2cc(C(=O)Nc3ccc(S(=O)(=O)Nc4nc(C)cc(C)n4)cc3)c(=O)oc2c1`: the “relative growth in counter assay” value was -5.02%.
Consider `CCN1CC(C(=O)N2CCC(c3cccc(Nc4ncc(C)s4)n3)CC2)CC1=O` (configuration not stated), for which the “relative growth in counter assay” value was -1.29%.
For `CC(=O)Nc1ccc(S(=O)(=O)Nc2nccc(C)n2)cc1`, the “relative growth in counter assay” value was found to be 1.1%.
Take `Cc1ccnc(NS(=O)(=O)c2ccc(NC(=O)Cc3cccs3)cc2)n1`: the “relative growth in counter assay” value was -1.12%.
On to `Cc1nc(Nc2cccc(C3CCCN3C(=O)CCCc3ccc(F)cc3)n2)sc1C` (configuration not stated), for which the “relative growth in counter assay” value was determined as 3.86%.
As for `O=C(Cc1ccc(F)cc1)N1CCC(c2cccc(Nc3nccs3)n2)CC1`, the “relative growth in counter assay” value is -25.1%.
Consider `CC(C)C(=O)Nc1ccc(S(=O)(=O)Nc2ccccn2)cc1`, for which the “relative growth in counter assay” value was -2.72%.
As for `COc1cc(NS(=O)(=O)c2ccc(NC(=O)c3ccc(Br)cc3)cc2)nc(OC)n1`, the “relative growth in counter assay” value is 8.28%.
Turning to `Cc1csc(Nc2cccc(C3CN(CC(=O)NCc4ccccn4)CCO3)n2)n1` (configuration not stated), the “relative growth in counter assay” value was found to be 5.68%.
`Cc1cc(C)nc(NS(=O)(=O)c2ccc(NC(=O)/C=C/c3cccs3)cc2)n1`: the “relative growth in counter assay” value was determined as 3.95%.
Regarding `Cc1cnc(Nc2cccc(CC3CCN(CC(=O)N(C(C)C)C4CCCCC4)CC3)n2)s1`, the “relative growth in counter assay” value was -3.05%.
`CCOc1cccc(C(=O)Nc2ccc(S(=O)(=O)Nc3nc(C)cc(C)n3)cc2)c1`: the “relative growth in counter assay” value was -0.87%.
Turning to `O=C(CSc1nc2cc(Cl)ccc2[nH]1)Nc1ccc(Br)cn1`, the “relative growth in counter assay” value was -6.16%.
With `Cc1ccccc1OCC(=O)Nc1ccc(S(=O)(=O)Nc2ccccn2)cc1`, the “relative growth in counter assay” value stood at 1%.
As to `Cc1ccc(C)c(OCCCC(=O)Nc2ccc(S(=O)(=O)Nc3ncccn3)cc2)c1`, the “relative growth in counter assay” value was -2.63%.
Turning to `CCOc1ccc(C(=O)Nc2ccc(S(=O)(=O)Nc3ncccn3)cc2)cc1OCC`, the “relative growth in counter assay” value was 6.76%.
For `CC1=NN(CCC(=O)N2CCOC(c3cccc(Nc4nc(C)c(C)s4)n3)C2)CC1` (configuration not stated), the “relative growth in counter assay” value is 15.8%.
Regarding `NC(=O)CN1CCC(c2csc(Nc3ccc(F)cn3)n2)CC1`, the “relative growth in counter assay” value was 5.45%.
The same measure for `CC(=O)Nc1ccc(S(=O)(=O)Nc2ncccn2)cc1`: -1.98%; for `Cc1ccnc(NS(=O)(=O)c2ccc(NC(=O)c3ccc(C)c(C)c3)cc2)n1`: -1.31%.
As to `O=C(O)COCCOCCNc1cc2c(cc1F)C(=O)N(C1CCC(=O)NC1=O)C2=O` (configuration not stated), the “relative growth in counter assay” value turned out to be 0.82%.
For the compound `Cc1cnc(Nc2cc(C3CCN(C(=O)C4CCCCN4C(=O)OC(C)(C)C)CC3)ccn2)s1` (configuration not stated), the “relative growth in counter assay” value amounted to 7.97%.
For the compound `O=C(CC(c1ccccc1)c1ccccc1)Nc1ccc(S(=O)(=O)Nc2ncccn2)cc1`, the “relative growth in counter assay” value was -1.59%.
As for `Cc1cnc(Nc2cccc(C3CN(C(=O)CCc4cccc(Cl)c4)CCO3)n2)s1` (configuration not stated), the “relative growth in counter assay” value is -5.59%.
Turning to `COc1ccc(Cl)cc1NC(=O)CSc1nnc2c(n1)[nH]c1ccc(C)cc12`, the “relative growth in counter assay” value was 5.28%.
Turning to `Cc1nc(C)c(C(=O)N2CCC(c3cccc(Nc4ncc(C)s4)n3)CC2)o1`, the “relative growth in counter assay” value was -23.1%.
With `O=C(COc1ccccc1Cl)Nc1ccc(S(=O)(=O)Nc2ccccn2)cc1` the figure was -2.13%.
Consider `CN(C)CC(=O)N1CCC(c2cccc(Nc3ncc(-c4ccccc4)s3)n2)CC1`, for which the “relative growth in counter assay” value is -7.73%.
`Cc1ccccc1N1C(=O)c2ccc(Oc3ccc(N)cc3)cc2C1=O`: the “relative growth in counter assay” value is 12.7%.
For the compound `Cc1nc(Nc2cccc(C3CCCN3C(=O)c3ccc(=O)n(C)n3)n2)sc1C` (configuration not stated), the “relative growth in counter assay” value was -5.62%.
As to `CN1CCN(CC(=O)N2CCC(c3cccc(Nc4ncc(-c5ccccc5)s4)n3)CC2)CC1`, the “relative growth in counter assay” value is -22.9%.
With `CCCCc1cnc(Nc2cccc(C3CCN(C(=O)[C@@H]4CCCCN4)CC3)n2)s1`, the “relative growth in counter assay” value is -13.9%.
With `COc1nccnc1NS(=O)(=O)c1ccc(NC(=S)NC(=O)/C=C/c2ccccc2)cc1` the figure was -22.1%; with `Cc1cc(C)c(OCC(=O)Nc2ccc(S(=O)(=O)Nc3cc(C)nc(C)n3)cc2)c(C)c1`, -1.48%; with `Cc1cnc(Nc2cccc(C3CN(C(=O)c4c(C(C)C)noc4C)CCO3)n2)s1` (configuration not stated), -6.3%.
On to `CCCOc1ccc(/C=C/C(=O)Nc2ccc(S(=O)(=O)Nc3cc(C)nc(C)n3)cc2)cc1OC`, for which the “relative growth in counter assay” value was -6.49%.
As to `CCOCC(=O)Nc1ccc(S(=O)(=O)Nc2ncccn2)cc1`, the “relative growth in counter assay” value was -2.18%.
In the case of `Cc1nc(Nc2cccc(C3CCN(CC(=O)N4CCC(C)CC4)CC3)n2)sc1C`, the “relative growth in counter assay” value was 26.6%.
In the case of `Cc1cnc(Nc2cccc(C3CN(C(=O)c4ccccc4)CCO3)n2)s1` (configuration not stated), the “relative growth in counter assay” value was -9.19%.
On to `COc1cccc(OC)c1C(=O)N1CCOC(c2cccc(Nc3nc(C)cs3)n2)C1` (configuration not stated), for which the “relative growth in counter assay” value was 10.3%.
Take `CC(=O)Nc1ccc(-c2csc(Nc3ccc(Cl)cn3)n2)cc1`: the “relative growth in counter assay” value is -4.91%.
Take `O=C(/C=C/c1cccnc1)N1CCC(c2cc3ccccc3c(Nc3nccs3)n2)CC1`: the “relative growth in counter assay” value is -20.5%.
The same measure for `O=C(C1CCCCC1)N1CCOC(c2cccc(Nc3ncc(Cc4ccccc4F)s3)n2)C1` (configuration not stated): 6.73%; for `CC(=O)Nc1cccc(-c2csc(Nc3cccc(C)n3)n2)c1`: 5.94%; for `Cc1cnc(Nc2cccc(C3CCN(C(=O)C4CCCCC4)CC3)n2)s1`: -18.4%.
On to `CCOc1ccc(C(=O)Nc2ccc(S(=O)(=O)Nc3nc(C)cc(C)n3)cc2)cc1`, for which the “relative growth in counter assay” value stood at 8.2%.
The same measure for `CCOCc1ccc(C(=O)N2CCCC2c2cccc(Nc3nc(C)c(C)s3)n2)cc1` (configuration not stated): 4.74%.
`Nc1cccc(Oc2ccc3c(c2)C(=O)N(c2cccc4ccccc24)C3=O)c1`: the “relative growth in counter assay” value came to 2.85%.
The same measure for `Cc1ccc2[nH]nc(C(=O)N3CCOC(c4cccc(Nc5ncc(Cc6ccccc6)s5)n4)C3)c2c1` (configuration not stated): -22.6%; for `CC(C)C(=O)Nc1ccc(S(=O)(=O)Nc2ncccn2)cc1`: 1.44%; for `COc1ccc(/C=C/C(=O)NC(=S)Nc2ccc(S(=O)(=O)Nc3nc(C)cc(C)n3)cc2)cc1OC`: 2.77%.
With `Cc1cnc(Nc2cccc(C3CN(C(=O)C4CCCC4)CCO3)n2)s1` (configuration not stated) the figure was -17%; with `O=C1CCC(N2C(=O)c3ccc(N4CCN(C5CCC(C(=O)O)CC5)CC4)cc3C2=O)C(=O)N1` (configuration not stated), -2.56%.
Regarding `Cc1c(Cl)cccc1NC(=O)CSc1nnc2c(n1)[nH]c1ccc(F)cc12`, the “relative growth in counter assay” value was found to be 14%.
Consider `Cc1cnc(Nc2cccc(C3CN(C(=O)C45CC6CC(CC(C6)C4)C5)CCO3)n2)s1` (configuration not stated), for which the “relative growth in counter assay” value is -1.75%.
`COc1cc(NS(=O)(=O)c2ccc(NC(C)=O)cc2)nc(OC)n1`: the “relative growth in counter assay” value is -2.85%.
On to `CN(CCCN1CCNCC1)c1cccc2c1C(=O)N(C1CCC(=O)NC1=O)C2=O` (configuration not stated), for which the “relative growth in counter assay” value is 0.92%.
For `CCc1ccccc1OCC(=O)Nc1ccc(S(=O)(=O)Nc2ncccn2)cc1`, the “relative growth in counter assay” value was found to be 8.22%.
In the case of `CCCOc1ccc(C(=O)Nc2ccc(S(=O)(=O)Nc3ncccn3)cc2)cc1`, the “relative growth in counter assay” value was found to be 8.13%.
For the compound `Cc1cc(Cl)ccc1OC(C)C(=O)Nc1ccc(S(=O)(=O)Nc2ccccn2)cc1` (configuration not stated), the “relative growth in counter assay” value came to 10.4%.
